This passage reports Ki results from patent publication US11999716B2, “WDR5 inhibitors and modulators” (priority 2018, dated 2024).

Like-named read-outs stand apart in the source and are kept apart here.

The target of the test is WDR5 (Homo sapiens, UniProt P61964). Briefly: biochemical. In kind it is binding. As to conditions: WDR5-His tag (Δ23, residues 24-334) 2 nM, 10mer-Thr-FAM probe 150 nM, Tb-anti-HIS 1 nM, 60 min, room temperature.
The mark [1] stands for this setting: read-out: Ki for Inhibition of WDR5 by TR-FRET assay.

With `COc1ccnc([C@H](C)N2CCc3c(cc(Cn4ccnc4C)cc3-c3ccc(F)cc3C)C2=O)c1` [Example 168, (S)-5-(4-Fluoro-2-methylphenyl)-2-(1-(4-methoxypyridin-2-yl)ethyl)-7-((2-methyl-1H-imidazol-1-yl)methyl)-3,4-dihydroisoquinolin-1(2H)-one], the inhibition constant Ki under setting [1] is below 0.05 nM. On the same count and under the same terms, the result for `Cc1cc(CN2CCc3c(cc(Cn4ccnc4C)cc3-c3cn(C)nc3C(F)(F)F)C2=O)ccn1` [Example 208, 7-((2-Methyl-1H-imidazol-1-yl)methyl)-5-(1-methyl-3-(trifluoromethyl)-1H-pyrazol-4-yl)-2-((2-methylpyridin-4-yl)methyl)-3,4-dihydroisoquinolin-1(2H)-one] reads 0.059 nM; that for `COc1cc(CN2CCc3c(cc(Cn4cnnc4C)cc3-c3ccc(F)cc3C)C2=O)cc(OC)c1` [Example 145, 2-(3,5-Dimethoxybenzyl)-5-(4-fluoro-2-methylphenyl)-7-((3-methyl-4H-1,2,4-triazol-4-yl)methyl)-3,4-dihydroisoquinolin-1(2H)-one], 7.9 nM. The same measure, in the same setting: the result for `CCn1cc(-c2cc(Cn3ccnc3NC)cc3c2CCN([C@@H](C)c2cc(OC)ccn2)C3=O)c(C(F)(F)F)n1` [Example 161, (S)-5-(1-Ethyl-3-(trifluoromethyl)-1H-pyrazol-4-yl)-2-(1-(4-methoxypyridin-2-yl)ethyl)-7-((2-(methylamino)-1H-imidazol-1-yl)methyl)-3,4-dihydroisoquinolin-1(2H)-one] reads below 0.05 nM; that for `CCn1cc(-c2cc(Cn3ccnc3)cc3c2CCN([C@@H](C)c2cc(OC)ccn2)C3=O)c(C(F)(F)F)n1` [Example 160, (S)-7-((1H-Imidazol-1-yl)methyl)-5-(1-ethyl-3-(trifluoromethyl)-1H-pyrazol-4-yl)-2-(1-(4-methoxypyridin-2-yl)ethyl)-3,4-dihydroisoquinolin-1(2H)-one], below 0.05 nM; that for `Cc1cc(CN2CCc3c(cc(Cn4ccnc4C)cc3-c3cn(C)nc3C(F)(F)F)C2=O)cnc1Cl` [Example 242, 2-((6-Chloro-5-methylpyridin-3-yl)methyl)-7-((2-methyl-1H-imidazol-1-yl)methyl)-5-(1-methyl-3-(trifluoromethyl)-1H-pyrazol-4-yl)-3,4-dihydroisoquinolin-1(2H)-one], below 0.05 nM.

In the case of `CCn1cc(-c2cc(Cn3cnn(C)c3=N)cc3c2CCN(Cc2cc(OC)ccn2)C3=O)c(C(F)(F)F)n1` [Example 123, 5-(1-Ethyl-3-(trifluoromethyl)-1H-pyrazol-4-yl)-7-((5-imino-1-methyl-1,5-dihydro-4H-1,2,4-triazol-4-yl)methyl)-2-((4-methoxypyridin-2-yl)methyl)-3,4-dihydroisoquinolin-1(2H)-one], the Ki under setting [1] was below 0.05 nM. On the same count and under the same terms, the result for `CCn1cc(-c2cc(Cn3ccoc3=N)cc3c2CCN(Cc2cc(OC)ccn2)C3=O)c(C(F)(F)F)n1` [Example 89, 5-(1-Ethyl-3-(trifluoromethyl)-1H-pyrazol-4-yl)-7-((2-iminooxazol-3(2H)-yl)methyl)-2-((4-methoxypyridin-2-yl)methyl)-3,4-dihydroisoquinolin-1(2H)-one] reads below 0.05 nM; that for `CCn1cc(-c2cc(Cn3ccnc3C)cc3c2CCN([C@@H](C)c2cncc(OC)c2)C3=O)c(C(F)(F)F)n1` [Example 243, (S)-5-(1-Ethyl-3-(trifluoromethyl)-1H-pyrazol-4-yl)-2-(1-(5-methoxypyridin-3-yl)ethyl)-7-((2-methyl-1H-imidazol-1-yl)methyl)-3,4-dihydroisoquinolin-1(2H)-one], below 0.05 nM; that for `Cc1cc(C)nc([C@@H](C)N2CCc3c(cc(Cn4ccnc4C)cc3-c3cn(C)nc3C(F)(F)F)C2=O)c1` [Example 166, (R)-2-(1-(4,6-Dimethylpyridin-2-yl)ethyl)-7-((2-methyl-1H-imidazol-1-yl)methyl)-5-(1-methyl-3-(trifluoromethyl)-1H-pyrazol-4-yl)-3,4-dihydroisoquinolin-1(2H)-one], below 0.05 nM.

Take `Cc1nccn1Cc1cc2c(c(-c3cn(C)nc3C(F)(F)F)c1)CCN(Cc1ccc3c(c1)OCO3)C2=O` [Example 170, 2-(Benzo[d][1,3]dioxol-5-ylmethyl)-7-((2-methyl-1H-imidazol-1-yl)methyl)-5-(1-methyl-3-(trifluoromethyl)-1H-pyrazol-4-yl)-3,4-dihydroisoquinolin-1(2H)-one]: the Ki under setting [1] was 0.15 nM. On to `COc1ccnc(CN2CCc3c(cc(CN4CCN(C5CC5)C4=N)cc3-c3cn(C)nc3C)C2=O)c1` [Example 46, 7-((3-Cyclopropyl-2-iminoimidazolidin-1-yl)methyl)-5-(1,3-dimethyl-1H-pyrazol-4-yl)-2-((4-methoxypyridin-2-yl)methyl)-3,4-dihydroisoquinolin-1(2H)-one], for which the inhibitory constant (Ki) under setting [1] was below 0.05 nM.

Turning to `CCn1cc(-c2cc(Cn3ccn(C)c3=N)cc3c2CCN(Cc2cc(C)nn2C)C3=O)c(C(F)(F)F)n1` [Example 74], the inhibition constant Ki under setting [1] is below 0.05 nM. For the compound `COc1ccnc(CN2Cc3c(cc(Cn4ccn(C)c4=N)cc3C3CC3)C2=O)c1` [Example 136, 4-Cyclopropyl-6-((2-imino-3-methyl-2,3-dihydro-1H-imidazol-1-yl)methyl)-2-((4-methoxypyridin-2-yl)methyl)isoindolin-1-one], under setting [1], the Ki was 12 nM. The same measure, in the same setting: the result for `CCn1cc(-c2cc(Cn3ccnc3C3CC3)cc3c2CCN([C@@H](C)c2cc(OC)ccn2)C3=O)c(C(F)(F)F)n1` [Example 159, (S)-7-((2-Cyclopropyl-1H-imidazol-1-yl)methyl)-5-(1-ethyl-3-(trifluoromethyl)-1H-pyrazol-4-yl)-2-(1-(4-methoxypyridin-2-yl)ethyl)-3,4-dihydroisoquinolin-1(2H)-one] reads below 0.05 nM. The same measure, in the same setting: the result for `Cc1cc(CN2CCc3c(cc(Cn4ccnc4C)cc3-c3cn(C)nc3C(F)(F)F)C2=O)cnc1C` [Example 241, 2-((5,6-Dimethylpyridin-3-yl)methyl)-7-((2-methyl-1H-imidazol-1-yl)methyl)-5-(1-methyl-3-(trifluoromethyl)-1H-pyrazol-4-yl)-3,4-dihydroisoquinolin-1(2H)-one] reads below 0.05 nM; that for `CCc1ccnc(CN2CCc3c(cc(Cn4cc(C)nc4C)cc3-c3cn(CC)nc3C(F)(F)F)C2=O)c1` [Example 22, 7-((2,4-Dimethyl-1H-imidazol-1-yl)methyl)-5-(1-ethyl-3-(trifluoromethyl)-1H-pyrazol-4-yl)-2-((4-ethylpyridin-2-yl)methyl)-3,4-dihydroisoquinolin-1(2H)-one], 0.061 nM; that for `Cc1nccn1Cc1cc2c(c(-c3cn(C)nc3C(F)(F)F)c1)CCN(c1cnccc1-c1ccccc1)C2=O` [Example 246, 7-((2-Methyl-1H-imidazol-1-yl)methyl)-5-(1-methyl-3-(trifluoromethyl)-1H-pyrazol-4-yl)-2-(4-phenylpyridin-3-yl)-3,4-dihydroisoquinolin-1(2H)-one], 0.44 nM.

Consider `COc1cc(CN2CCc3c(cc(Cn4ccn(C)c4=N)cc3-c3cn(C)nc3C(F)(F)F)C2=O)cc(OC)c1` [Example 39, 2-(3,5-Dimethoxybenzyl)-7-((2-imino-3-methyl-2,3-dihydro-1H-imidazol-1-yl)methyl)-5-(1-methyl-3-(trifluoromethyl)-1H-pyrazol-4-yl)-3,4-dihydroisoquinolin-1(2H)-one], for which, under setting [1], the Ki was below 0.05 nM. The same measure, in the same setting: the result for `CCn1cc(-c2cc(Cn3cnc(C)c3)cc3c2CCN([C@H](c2cc(OC)ccn2)C2CC2)C3=O)c(C(F)(F)F)n1` [Example 244, (S)-2-(cyclopropyl(4-methoxypyridin-2-yl)methyl)-5-(1-ethyl-3-(trifluoromethyl)-1H-pyrazol-4-yl)-7-((4-methyl-1H-imidazol-1-yl)methyl)-3,4-dihydroisoquinolin-1(2H)-one] reads below 0.05 nM. With `CCn1cc(-c2cc(Cc3cncn3C)cc3c2CCN([C@@H](C)c2cc(OC)ccn2)C3=O)c(C(F)(F)F)n1` [Example 257, (S)-5-(1-Ethyl-3-(trifluoromethyl)-1H-pyrazol-4-yl)-2-(1-(4-methoxypyridin-2-yl)ethyl)-7-((1-methyl-1H-imidazol-5-yl)methyl)-3,4-dihydroisoquinolin-1(2H)-one], the inhibition constant Ki (Ki for Inhibition of WDR5 by TR-FRET assay) was below 0.05 nM. In the case of `CCc1ccc(OC)c(CN2CCc3c(cc(Cn4ccnc4C)cc3-c3cn(C)nc3C(F)(F)F)C2=O)c1` [Example 217, 2-(5-Ethyl-2-methoxybenzyl)-7-((2-methyl-1H-imidazol-1-yl)methyl)-5-(1-methyl-3-(trifluoromethyl)-1H-pyrazol-4-yl)-3,4-dihydroisoquinolin-1(2H)-one], under setting [1], the Ki is below 0.05 nM. The same measure, in the same setting: the result for `COc1cc(CN2CCc3c(cc(Cn4ccn(C)c4=N)cc3-c3ccc(C)nc3C)C2=O)cc(OC)c1` [Example 68, 2-(3,5-Dimethoxybenzyl)-5-(2,6-dimethylpyridin-3-yl)-7-((2-imino-3-methyl-2,3-dihydro-1H-imidazol-1-yl)methyl)-3,4-dihydroisoquinolin-1(2H)-one] reads 0.056 nM; that for `CCn1cc(-c2cc(CN3CCOC3=N)cc3c2CCN(Cc2cc(OC)ccn2)C3=O)cn1` [Example 86, 5-(1-Ethyl-1H-pyrazol-4-yl)-7-((2-iminooxazolidin-3-yl)methyl)-2-((4-methoxypyridin-2-yl)methyl)-3,4-dihydroisoquinolin-1(2H)-one], 1.8 nM; that for `Cn1ccn(Cc2cc3c(cc2F)CCN(Cc2ccc(Cl)c(Cl)c2)C3=O)c1=N` [Example 26, 2-(3,4-Dichlorobenzyl)-6-fluoro-7-((2-imino-3-methyl-2,3-dihydro-1H-imidazol-1-yl)methyl)-3,4-dihydroisoquinolin-1(2H)-one], 22 nM.

As to `Cc1cnc(Cl)c(CN2CCc3c(cc(Cn4ccnc4C)cc3-c3cn(C)nc3C(F)(F)F)C2=O)c1` [Example 223, 2-((2-Chloro-5-methylpyridin-3-yl)methyl)-7-((2-methyl-1H-imidazol-1-yl)methyl)-5-(1-methyl-3-(trifluoromethyl)-1H-pyrazol-4-yl)-3,4-dihydroisoquinolin-1(2H)-one], the inhibition constant (Ki) under setting [1] was below 0.05 nM.

By Ki is commonly meant the dissociation constant of the complex between target and ligand, obtained from inhibition or displacement.
